Experimental findings from PubChem BioAssay AID1240 (Sanford-Burnham Center for Chemical Genomics, 2008) are described below.

Values joined by “and” are separate entries in the source; they are usually repeats but may differ in a detail not shown here. Equal entries are not always repeated. In all, about 50,000 compounds went through this assay and about 800 (1.6%) showed an effect of 50% or more. The list shows a part of the results.

This experiment concerns the target Bcl-2-like protein 10 (Homo sapiens) (UniProt Q9HD36). The experiment is described as follows: Phenotype converters, Bcl-B/TR3 peptide binding displacement, primary biochemical FP (AID 1240).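 Further: 0% = Bcl-B with tracer peptide and DMSO and 100% = tracer peptide lacking Bcl-B.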 Conditions: GST-Bcl-B / FITC-TR3 peptide fluorescence polarization; stronger effect = higher value; compound at 3.75 mg/L.
UniProt Q9HD36, sequence (Q9HD36 whole entry, looked up): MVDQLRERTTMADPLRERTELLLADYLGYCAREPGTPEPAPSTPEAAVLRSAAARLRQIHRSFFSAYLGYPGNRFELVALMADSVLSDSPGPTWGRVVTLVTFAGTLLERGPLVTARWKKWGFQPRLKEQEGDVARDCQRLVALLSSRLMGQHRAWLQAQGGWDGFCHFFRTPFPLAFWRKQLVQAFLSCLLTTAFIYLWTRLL
As to `O=C(CN1CCOCC1)NCC(=O)Nc1ccc(Br)cc1C(=O)c1ccccc1`, the displacement was 12%. Regarding `C=CCn1cc(C=C2C(=O)NC(=O)NC2=O)c2ccccc21`, the displacement is 16.3%.

Turning to `CN1CCN(c2ccc([N+](=O)[O-])c(Br)c2F)CC1`, the displacement came out at 0.4%.

As to `O=C(O)c1cn(Cc2ccccc2)c2ccccc12`, the displacement was -2.6%. Take `Nc1ccc(Br)cc1C(=O)c1ccc(Cl)cc1Cl`: the displacement turned out to be 10%. As for `Cc1cccnc1-n1c(CN2C(=O)c3ccccc3C2=O)nc2ccccc2c1=O`, the displacement was found to be 10.4%. The value for `CC(Cc1ccccc1)NC(=O)CN1CCCC1=O` (centres undefined) was 8.5%; that for `CN(C)C(=O)C(c1ccccc1)c1ccccc1` was 20.4%. Regarding `C[C@]12CCCCC1CCC1C2CC[C@@]2(C)C1CC[C@@]2(O)CC#N` (some centres undefined), the displacement worked out at 2.9%. With `CC1(C)C(=O)N(c2ccccc2)C(=O)N(c2ccccc2)C1=O`, the displacement stood at 17.1%. Next, `Cc1cc(OCc2ccc(F)cc2)c2c3c(c(=O)oc2c1)CCCC3`: -3.2%. Regarding `O=C1NC(=S)NC(=O)C1=Cc1ccc(O)c(O)c1`, the displacement was found to be 7.6%. The value for `COc1cc(/C=C/c2nc3ccccc3c(=O)n2-c2ccccc2)ccc1O` was 5.6%. As to `O=c1c2ccccc2nc(-c2ccccc2F)n1-c1ccccc1`, the displacement is 14.1%. Consider `c1cc(CN2CCN(C3CC4CCC3C4)CC2)ccn1` (centres undefined), for which the displacement was -7.2%.

As for `CCc1ccc(CN2CCN(Cc3cc(Br)ccc3O)CC2)cc1`, the displacement is -8.4%.

In the case of `Cc1nc2cc([N+](=O)[O-])ccc2c(=O)n1-c1ccc(Cl)cc1`, the displacement was determined as 71.3%. Next, `CCOC(=O)C(P(=O)(OCC)OCC)P(=S)(c1ccccc1)c1ccccc1` (centres undefined): 11%.

On to `CCc1ccc(N2C(=O)/C(=C/c3ccc(OCC(=O)O)c(Br)c3)C(=O)NC2=S)cc1`, for which the displacement was -0.7%. With `O=C1NC(=O)C(=Cc2cc(Cl)c(O)c(Cl)c2)C(=O)N1`, the displacement is -7.7%. On to `COc1ccc(/C=C/c2nc3ccccc3c(=O)n2-c2ccc(OC)cc2)cc1`, for which the displacement is -2%.

For the compound `O=[N+]([O-])/N=C1\NCN(c2ccc(Cl)cc2)CN1c1ccccc1`, the displacement is 1.8%. On to `C=CCN1C(=O)/C(=C\c2cccs2)C(=O)NC1=S`, for which the displacement is -2.1%. As for `Clc1ccc(CCNCc2ccc3c(c2)OCO3)c(Cl)c1`, the displacement worked out at 2.1%. Consider `COc1ccc(CCNC2CC3CCC2C3)cc1OC` (centres undefined), for which the displacement was determined as 3.8%.

Regarding `COc1ccc(O)c(CN2CCN(Cc3ccc(Br)cc3)CC2)c1`, the displacement was found to be 5.5%. The value for `CCCCOc1cc(C)cc2oc(=O)c3c(c12)CCC3` was 9.6%; that for `COC(=O)c1cccc(-c2ccc(C=C3C(=O)NC(=S)NC3=O)o2)c1` was 1.1%; that for `O=C1NC(=O)C(=Cc2ccc(N3CCOCC3)cc2)C(=O)N1` was 78.9%. Take `CCC(=O)Nc1ccc(Cl)c(Cl)c1`: the displacement was 11.4%. For the compound `O=C(Cc1ccccc1)N1CCN(Cc2ccc(F)cc2)CC1`, the displacement was -18.7%. Regarding `O=C(COc1ccccc1)N1CCN(Cc2cccc(Cl)c2)CC1`, the displacement is -14.6%. Take `Fc1ccc(CN2CCN(Cc3cccc(Br)c3)CC2)cc1`: the displacement was -9.7%. As for `O=C(NC1CCSC1=O)c1cccs1` (centres undefined), the displacement was -6.7%. On to `O=C(CNC(=O)c1ccccc1Cl)Nc1ccc(Br)cc1C(=O)c1ccccc1`, for which the displacement was 11.1%.

As to `CCN(CC)c1ccc(CC2C(=O)N(C)C(=O)N(C)C2=O)cc1`, the displacement was 24.9%. Take `Cc1cc(-c2ccc(C=C3C(=O)NC(=O)NC3=O)o2)ccc1[N+](=O)[O-]`: the displacement was determined as 13.1%. As to `CCCCCC1(C)NCCN2C(=O)CSC21` (centres undefined), the displacement turned out to be 0.1%. Next, `O=c1c2ccccc2nc(-c2ccco2)n1-c1ccc(Br)cn1`: 0.8%; `O=C1NC(=S)N(c2ccc(Br)cc2)C(=O)/C1=C/c1ccc(-c2ccc(C(=O)O)cc2)o1`: 21.4%; `COC(=O)c1c(NC(=O)C23CC4CC(CC(C4)C2)C3)sc2c1CCCC2`: -4.6%. Next, `COc1ccc(N2C(=O)/C(=C/c3ccc(-c4cc(C(=O)O)ccc4Cl)o3)C(=O)NC2=S)cc1`: 10.9%. For `O=C1NC(=S)N(c2ccc(F)cc2)C(=O)/C1=C/c1ccc(Br)o1`, the displacement was -40%. `Nc1c2c(nc3ccccc13)CCCCC2`: the displacement amounted to 0.8%. Consider `CCN1C(=O)/C(=C/c2cccn2C)C(=O)NC1=S`, for which the displacement was found to be 45.4%. As for `Cc1ccc(C=C2C(=O)NC(=S)N(c3ccccc3F)C2=O)s1`, the displacement is 14.7%. With `O=c1c2ccccc2nc(-c2cccnc2)n1-c1ccc(Br)cn1`, the displacement was determined as 15.5%.

Consider `CCCCOC(=O)C1CN1C(C)(C)C(=O)OCC` (centres undefined), for which the displacement amounted to 14.7%. For the compound `COc1ccc(OCC(=O)N2CCN(C)CC2)cc1`, the displacement is -0.7%.

As to `Cc1ccccc1CN(CCc1ccc2c(c1)OCO2)Cc1ccccc1C`, the displacement was -4.4%. Turning to `CC(=O)Oc1ccccc1C(=O)Oc1ccc2c(c1)c(C(C)=O)c(C)n2Cc1ccccc1`, the displacement is -14.5%.

For the compound `C=CCN1C(=O)NC(=O)/C(=C/c2ccc(-c3cc([N+](=O)[O-])ccc3Cl)o2)C1=O`, the displacement came out at 84.3%. The value for `CC(C)OC(NC(=O)c1ccco1)C(Cl)(Cl)Cl` (centres undefined) was 15%; that for `CC(C)Oc1c(Br)cc(Br)cc1C=C(C#N)C#N` was 5.4%. The value for `O=C(COc1ccc2ccccc2c1)N1CCN(C2CC3CCC2C3)CC1` (centres undefined) was 2%; that for `C[n+]1ccc(-c2ccncc2)cc1` was -3.4%. Turning to `COCCOC(=O)C1CN1C(Cc1ccccc1)C(=O)OC` (centres undefined), the displacement is -13.9%. Take `CCN(CC)S(=O)(=O)c1ccc(C(=O)Nc2ccc([N+](=O)[O-])cc2C(=O)c2ccccc2)cc1`: the displacement was -9.4%. Take `CCn1cc(C=C2C(=O)NC(=O)NC2=O)c2ccccc21`: the displacement stood at 12.6%.

Take `COc1cccc(-n2c(/C=C/c3ccc4c(c3)OCO4)nc3ccccc3c2=O)c1`: the displacement is -16%. Take `CCOC(=O)c1c(C)n(CC(C)C)c2ccc(OC)cc12`: the displacement turned out to be 12.2%.

Turning to `O=S(=O)(c1cc(Cl)c(O)c(Cl)c1)c1cc(Cl)c(O)c(Cl)c1`, the displacement was 9.2% and 13.6%.

For `O=C1c2ccccc2C(=O)N1Cc1nc2ccccc2c(=O)n1-c1nccs1`, the displacement is -5%. In the case of `C=CCc1cc(/C=C2/C(=O)NC(=O)N(c3ccc(C(C)C)cc3)C2=O)cc(OC)c1O`, the displacement was -24.8%. Turning to `Cc1cc([N+](=O)[O-])ccc1-c1ccc(/C=C2/C(=O)NC(=O)N(C)C2=O)o1`, the displacement was determined as 11.4%. Turning to `Clc1ccc(CCNCc2ccccn2)c(Cl)c1`, the displacement is -8%. Consider `Cc1cccc(-n2c(/C=C/c3ccc4c(c3)OCO4)nc3ccccc3c2=O)c1`, for which the displacement was -0.4%. The value for `Cc1ccc(-c2nc3ccccc3c(=O)n2-c2ncccc2C)cc1` was -11.7%. As to `O=Cc1cn(Cc2ccc(Cl)cc2Cl)c2ccccc12`, the displacement turned out to be 2.2%.

Regarding `CC(C)CC(=O)NC(Oc1ccc(Cl)cc1)C(Cl)(Cl)Cl` (centres undefined), the displacement is 15.4%.

Consider `O=[N+]([O-])c1ccc(CN2CCN(Cc3ccccc3F)CC2)cc1`, for which the displacement was -9.3%.

In the case of `COc1ccc(CCNCc2ccccc2C(F)(F)F)cc1`, the displacement was 5.4%. The value for `O=[N+]([O-])N=S(c1ccccc1)c1ccccc1` was -4.8%; that for `COc1ccc(CNCCc2ccc(Cl)cc2)cc1` was 14%; that for `O=[N+]([O-])c1ccc(NCCCO)c2ncccc12` was 8.8%. Next, `O=[N+]([O-])c1ccc(CN2CCN(Cc3cccc(Cl)c3)CC2)cc1`: -10.6%; `O=[N+]([O-])/C=C/c1ccccc1OCc1ccc(Cl)cc1Cl`: 4.5%. Consider `O=C(Nc1ccc(Cl)cc1C(=O)c1ccccc1)c1ccc(S(=O)(=O)N2CCCCC2)cc1`, for which the displacement is -7.3%.

As to `Clc1ccc(CNCCc2ccc3c(c2)OCO3)cc1`, the displacement was -16.4%.

Regarding `O=Cc1cn(Cc2c(Cl)cccc2Cl)c2ccccc12`, the displacement was 4.7%. With `COc1cccc(-n2c(/C=C/c3cccnc3)nc3ccccc3c2=O)c1`, the displacement is 0.6%. `Cc1cc(/C=C2\C(=O)NC(=O)N(C)C2=O)c(C)n1-c1ccc2c(c1)OCO2`: the displacement stood at 107%. Turning to `Oc1ccc(Br)cc1CN1CCN(Cc2cccc(Cl)c2)CC1`, the displacement amounted to 0.8%.

Consider `O=C1CC(=O)N(c2ccccc2)C(=S)N1`, for which the displacement is -2.1%. For `O=c1c2ccccc2nc(/C=C/c2ccc(O)cc2)n1-c1ccccc1[N+](=O)[O-]`, the displacement turned out to be 0.1%.

Consider `CCC(CC)NCCc1ccc(OC)c(OC)c1`, for which the displacement is -5%. Consider `CC(=O)Oc1cc(C)cc2oc(=O)c3c(c12)CCCC3`, for which the displacement is -4.5%.

Consider `COc1ccc(CCNCc2cccn2C)cc1OC`, for which the displacement was determined as 2.7%.

For `NS(=O)(=O)c1ccc(N=Cc2c(O)n(C3CCCCC3)c(=O)n(C3CCCCC3)c2=O)cc1`, the displacement is 5.2%. Regarding `COc1ccc(CN2CCN(C(=O)COc3ccc(Cl)cc3)CC2)cc1OCc1ccccc1`, the displacement was determined as 7.4%. The value for `Cc1cccnc1-n1c(C)nc2ccccc2c1=O` was -7.8%; that for `COc1ccc(-c2ccc(C=C3C(=O)NC(=O)NC3=O)o2)c([N+](=O)[O-])c1` was 14%; that for `Cc1cc(-c2ccc(C=C3C(=O)NC(=S)NC3=O)o2)cc([N+](=O)[O-])c1C` was 7.7%. In the case of `COc1cc(OC)c(OC)cc1CNCCc1ccc(Cl)cc1`, the displacement amounted to 13.6%. Regarding `O=C1NC(=S)NC(=O)C1=Cc1ccccc1OCc1ccccc1F`, the displacement worked out at 15.3%. In the case of `CCCCCn1c(=O)c(C(=O)Nc2cccc(C)c2)c(O)c2ccccc21`, the displacement came to 3.9%. Next, `CCOc1ccc(N2C(=O)/C(=C/c3ccc(C)cc3)C(=O)NC2=S)cc1`: -14.1%; `CCc1nc2ccccc2c(=O)n1-c1cccc([N+](=O)[O-])c1`: 7%; `COc1ccccc1CCNCc1ccc([N+](=O)[O-])cc1`: 2.4%. The value for `O=C1c2ccccc2C(=O)N1Cc1nc2ccccc2c(=O)n1-c1ccc(Br)cn1` was 8.5%. The value for `COC(=O)C(=O)N1CC2(C)CNCC(C)(C1)C2=O` was -9.7%; that for `COc1cccc(C=C2C(=O)NC(=S)NC2=O)c1` was 3.2%.

Consider `CN(C)c1ccc(/C=C2/C(=O)C3CCN2CC3)cc1`, for which the displacement was determined as 30.3%.

Regarding `O=[N+]([O-])c1cccc(CNCCc2cccc(F)c2)c1`, the displacement is 1.8%. Regarding `CC(/C=C/c1c[nH]c2ccccc12)=N/O`, the displacement is 8.6%. As to `O=C1NC(=O)N(c2ccccc2Cl)C(=O)C1=Cc1ccccc1`, the displacement turned out to be 12.8%.

Turning to `Cc1ccc(-n2c(-c3ccccn3)nc3ccccc3c2=O)cc1`, the displacement was -3.9%.

Regarding `COc1ccc(CNCCc2ccc(Cl)cc2Cl)c(OC)c1`, the displacement was 9.6%.

Turning to `Cc1ccc(C)n1-c1ccc(N2CCNCC2)c([N+](=O)[O-])c1`, the displacement worked out at 17.9%.

`COc1cc(/C=C/[N+](=O)[O-])cc(Br)c1O`: the displacement was found to be 7.3%. The value for `O=c1c2ccccc2nc(-c2cccs2)n1-c1ccccn1` was 19.3%; that for `COc1ccc(/C=C/C(=O)NC(C)Cc2ccccc2)cc1` (centres undefined) was -12.2%. With `COc1cc(CNCCc2c[nH]c3ccccc23)cc(OC)c1O`, the displacement was -10.3%. For the compound `O=C1NC(=O)N(c2cccc(Br)c2)C(=O)/C1=C/c1ccc(-c2ccc(C(=O)O)cc2)o1`, the displacement is -56.7%.
